Sequences with one replicate were seen in a single cluster, so their values are uncertain.
Test system: ATP
Assay: switch fluorescence ratio, 500 uM ATP over buffer (Cy3 cluster intensity, sum of 5 cycles each) (fold (ratio)); higher = stronger signal-on switching upon ATP binding; sequences stand for … in TCGTCGGCAGCGTCAGATGTGTATAAGAGACAGTTTTTTTTTTTTTTTTTTTTTTTTT…TC
Conditions: aptamer strand: ATP DNA aptamer (quencher-CACCTGGGGGAGTATTGCGGAGGAAGG + anchor), 100 nM annealed; ATP concentration: 500 uM; one replicate
In short: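 Values give the fluorescence ratio for each switch-domain sequence, averaged from per-cluster ratios of summed target-cycle to summed buffer-cycle Cy3 intensity. The Cy3-labelled switching-strand clusters sat on a modified Illumina MiSeq flow-cell, were annealed to 100 nM quencher-labelled ATP aptamer, and were imaged in selection buffer, then after 15 min with 500 uM ATP at 22 °C. Five cycles ran with NaOH stripping and re-annealing between them, and clusters outside 100-1000 RFU were excluded.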
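Also: ATP exposure 15 min at 22 °C before imaging.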

Row | Sequence | switch fluorescence ratio
1 | ACAGAGTGGA | 1.02
2 | ATTGCTTAAA | 1.03
3 | ATACGTGGCT | 1.03
4 | CCTTCACTCC | 3.52
5 | AAATCTCTTG | 1.02
6 | ATTGAAATGA | 1.03
7 | ACAAGTATGG | 0.97
8 | GTGGTGACGT | 1.04
9 | GTTCTGTCCA | 0.997
10 | ATAAAGTCTA | 1.01
11 | TACATAAATT | 0.98
12 | TATATAGGCT | 1.03
13 | GTTTGCAATA | 1.52
14 | CCTACGGCTT | 2.2
15 | TCCAATCTAG | 0.992
16 | ACAGTAGTG | 1.02
17 | TAGTCTTAAA | 1.02
18 | TTCTAATGCC | 1.03
19 | TGGAGAAAT | 3.31
20 | GCCATGGGGC | 1.01
21 | TTCTGTCTAC | 1.07
22 | AGACTCGGT | 1.05
23 | GATACTTAGG | 1.02

Row | Sequence | switch fluorescence ratio
24 | CAGACATCCC | 0.993
25 | ATCTGCCGCT | 1.06
26 | AGCTTCATCC | 2.38
27 | TCCTTGAATT | 1.5
28 | AAAACTGGTG | 1.2
29 | CTGCCCGTGT | 1
30 | CGTTGAACCG | 0.949
31 | TCTGCCACGT | 0.996
32 | GTCAATTAGA | 1.03
33 | CTGGGGTGCG | 0.983
34 | GGTTACGGGA | 0.968
35 | GGGCCCCCGT | 0.96
36 | CGCGGGACCG | 0.985
37 | CGAATGAGCC | 0.985
38 | ATCAGAAA | 1.03
39 | TCAGAAGGGA | 1.02
40 | AATTATGGCG | 0.982
41 | GTACTGCCTC | 1.08
42 | ATGAATTCGA | 0.992
43 | TGGCCGGA | 1.05
44 | GGGATGGTAT | 1.01
45 | GATAGGGTCC | 1
46 | CGTGAACAGA | 1.01

Row | Sequence | switch fluorescence ratio
47 | CTTATGGTGC | 1.01
48 | AGTCCAGGGC | 1.02
49 | TCCCCTTTGT | 1.05
50 | TTGGAAGAAT | 1.03
51 | ACAAACGGAA | 1.39
52 | TGCTGCGTCG | 0.981
53 | TGGTAACAAT | 0.987
54 | GTCGGACAGG | 1.05
55 | TGATGTACAG | 1.01
56 | ATCGCAGGGA | 1.05
57 | ATACTTGGTG | 1.09
58 | AATGGAGTCG | 0.998
59 | TAGTGAAGC | 0.971
60 | TGATGTCTCC | 1.08
61 | TTCTGTCCCG | 1.26
62 | GCTTTAATCG | 0.954
63 | CCTTTGGGAA | 0.98
64 | AACTCCTGTT | 1.02
65 | TCGCTGTATC | 0.977
66 | ATTAAGGGCG | 0.96
67 | CTGGAGCGCG | 1.32
68 | CTTCGATACA | 1.04
69 | CCGTTGCCAA | 2.29

Row | Sequence | switch fluorescence ratio
70 | GCAGGGCTTC | 1
71 | AAGCCGATAG | 1.03
72 | AACTAGTTAG | 1.02
73 | ATTTTTGCAA | 1.11
74 | CATGCGGTGG | 0.977
75 | TACTGACGTA | 1.12
76 | AAACAGCTCT | 1.04
77 | AGTATAAAGC | 0.995
78 | GCTGACCTTT | 0.996
79 | TCGTAACTTT | 1.03
80 | AATGGGCAAT | 1.06
81 | TAGCCGATAA | 1.03
82 | GGCCAGGGGC | 1.05
83 | AAGTCGGATT | 0.941
84 | TTAGTGCAAC | 1.04
85 | TCCCGGGCCT | 1.01
86 | CGAATCTACA | 1.02
87 | CACTGGTGAT | 1
88 | ATTCTCGTTG | 0.994
89 | AGTTCAATAT | 1.04
90 | TTTGAATCAA | 1
91 | GGAACGACGG | 0.981
92 | AAGCCACAGA | 1.1

Row | Sequence | switch fluorescence ratio
93 | TGAGACGATT | 0.955
94 | ATTTAGTAGG | 0.999
95 | TTTTCTTAGC | 1.05
96 | ATGTTAGCAT | 1.02
97 | TATTAACCAT | 1.02
98 | TTACCTCGGA | 1.05
99 | TTTCGCCTGG | 0.979
100 | GTTTCTTGCT | 0.993
101 | GTGGCACTTA | 1
102 | AAGGAGGTAT | 1
103 | GGCCACGTCA | 1.07
104 | GGGTTTAAGC | 0.99
105 | CCCGTCGGCG | 1
106 | AAATGGCCGA | 1.02
107 | GCCTCGGCGT | 0.977
108 | ACAACAGTCT | 1.08
109 | TTAGTGGAGA | 0.998
110 | ACGACCGAGC | 2.31
111 | GACGATCACC | 1.5
112 | AATAGCACAC | 1.38
113 | CCACGCGAGT | 1.31
114 | GTCGACGTTG | 0.997
115 | ACAAGTGAAC | 1.05

Row | Sequence | switch fluorescence ratio
116 | GGTCTTGATC | 1.03
117 | GAGGTGATTC | 0.997
118 | CAAGGGTAAC | 1.01
119 | GAACGTAACG | 1.09
120 | ATGCTTTTTC | 0.979
121 | TTTGCGGCCC | 1.03
122 | ACAGACGCTG | 1.04
123 | ATGATTTTAC | 1.05
124 | AGCGGTCCGC | 1.05
125 | TGACAACTGA | 0.976
126 | GCTTTCTAGA | 0.988
127 | GCACCCCGGT | 1.16
128 | GGACGGTTGG | 0.988
129 | TACCTGACAA | 1.31
130 | GCGAGTTGAA | 0.988
131 | TTTAACTCTT | 1.05
132 | AATCTCGGCT | 0.989
133 | CCTTGGCGAT | 5.39
134 | GAACTCAAGA | 1.04
135 | GCTCTGATAG | 1.07
136 | GGGAAGAGCC | 1.31
137 | GGCGTGTACC | 1.02
138 | CCGAGGGACA | 1.36

Row | Sequence | switch fluorescence ratio
139 | TAAGGTACAG | 1
140 | GGGCTTGCCG | 1.01
141 | GAGTTCGATG | 0.973
142 | AATTATCACC | 1
143 | TGGCCCTGAG | 1.01
144 | TTGTCGAGA | 1.01
145 | AACAGCCGGG | 1.02
146 | ACTCTGCGCT | 1.36
147 | CCGTATAGGG | 1.29
148 | TGGAAATGTT | 1
149 | TCTGTATTC | 0.991
150 | TAGCTAATTG | 0.969
151 | AAAGCTGTGT | 1.01
152 | CTCCCGGTTT | 1.07
153 | AGATACGCTC | 1.05
154 | CCAGTCGGG | 0.991
155 | ACTGATTTAA | 1.03
156 | GGGTGGAGTC | 0.953
157 | AGTCAGCGGC | 1.01
